# Source: PubChem BioAssay AID504466 (National Center for Advancing Translational Sciences (NCATS), 2011)
# Among all 330,000 compounds or so, about 4,200 (1.3%) were called active. The inconclusive results got no clear call from the source; some entries with a clear call stand among them for comparison. The call rests on the fitted dose curve; in most records, active means well fitted activation curve with a large enough effect; inconclusive means small, poorly fitted or top-dose-only effect; inactive means no such curve, though single readings can be large or run the other way. A potency beside an inconclusive call is a rough fit, not a confirmed value.
# Assay: qHTS screen for small molecules that induce genotoxicity in human embryonic kidney (HEK293T) cells expressing luciferase-tagged ELG1; further: nearly all actives have a fitted effect of over 60% in size; on activity change, positive = activation: % of control where 0% means no effect
# Settings: HEK293T ELG1-luciferase reporter, luminescence, 16 h; series mostly up to 46 µM; activity change, positive = activation: at the top concentration
# Procedure, shortened: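 Quantitative HTS format in 1536-well plates. HEK293T ELG1-luciferase reporter cells receive test compound and are incubated 16 hr at 37 °C, 5% CO2; ONE-Glo added, 30 min room temperature, then luminescence read.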
# Potency means the concentration at half of the fitted maximal effect; tags describe the fitted curve by direction and shape.
SMILES,Potency,"activity change, positive = activation"
CCN1C(=O)c2cccc3cccc1c23,"inconclusive: 20.6 µM [activator, single point]",–
CN1CC(=O)N(CC(=O)Nc2ccc3c(c2)CCC3)C1=O,–,inactive: -1.95%
CC(C)N(CCNCC(O)COc1ccc(C(C)(C)c2ccccc2)cc1)C(C)C (configuration not stated),–,inactive: -5.22%
COc1cc2c(C#N)c(N3CCc4ccccc4C3)nc(N)c2c(N)n1,–,inactive: 13.3%
CCOc1ccc(N(C(=O)c2snc(C(N)=O)c2N)C(C(=O)NCC2CCCO2)c2ccc(C)o2)cc1 (configuration not stated),–,inactive: 0.0587%
CCCCC(=O)NC(NC(=S)N1CCCCCC1)C(Cl)(Cl)Cl (configuration not stated),–,inactive: -5.42%
Cc1ccc(NC(=O)NC2CCCCCCC2)cc1,"inconclusive: 5.8 µM [activator, full curve]",–
Cc1ccc(N(Cc2ccccc2)C(=O)c2cc(S(=O)(=O)N3CCOCC3)ccc2N2CCCC2)cc1,"inconclusive: 29.1 µM [activator, single point]",–
O=c1oc(CCO)cc2ccc(-c3ccc4[nH]ccc4c3)cc12,active: 14.6 µM,–
Fc1ccccc1CSc1nc2ncccc2[nH]1,active: 10.3 µM,–
Cc1cccc2sc(NNC(=O)c3cc(=O)c4ccccc4o3)nc12,"inconclusive: 29.1 µM [activator, single point]",–
N/C(=N\N=C\c1cccc(O)c1)c1nonc1N,"inconclusive: 6.51 µM [activator, single point]",–
Cc1ccc(C(=O)O/N=C(\N)Cc2cccs2)cc1[N+](=O)[O-],"inconclusive: 1.64 µM [activator, partial curve]",–
COc1ccc(C(=O)NC2CCN(CC(=O)Nc3cccc(OC)c3)CC2)cc1,–,inactive: -1.83%
COC(=O)CSc1nc2cc(C)ccc2cc1C#N,"inconclusive: 3.26 µM [activator, full curve]",–
Cc1cccnc1NC(=S)NC(=O)/C=C/c1ccco1,"inconclusive: 18.4 µM [activator, single point]",–
Cc1csc(N/N=C/c2ccccc2F)n1,"inconclusive: 4.61 µM [activator, partial curve]",–
CC1(C)CC(=O)c2sc(NC(=O)c3ccccc3)nc2C1,"inconclusive: 0.517 µM [activator, full curve, poor fit]",–
Cc1ccc(NC(=S)NC(=O)C2CCCC2)cc1C,"inconclusive: 9.2 µM [activator, partial curve]",–
O=C(CN1C(=O)COc2ccccc21)N(CCCN1CCOCC1)CC1CC=CCC1 (configuration not stated),–,inactive: -2.53%
COc1ccc(C(=O)Nc2ccc3c(c2)OCCO3)cc1,"inconclusive: 1.46 µM [activator, partial curve]",–
O=C(Cc1ccc(-c2ccccc2)cc1)Nc1ccccc1,"inconclusive: 0.146 µM [activator, partial curve, poor fit]",–
O=C(c1cc2cc(Cl)ccc2o1)N1CCCC1,"inconclusive: 10.3 µM [activator, partial curve, poor fit]",–
COc1ccc(C(=O)N2CCN(c3ncccn3)CC2)cc1[N+](=O)[O-],–,inactive: 0.503%
Cc1nnc2ccc(N3CCCCC3)nn12,"inconclusive: 20.6 µM [activator, single point]",–
O=C(Nc1ccon1)c1ccc(OC2CCCC2)cc1,"inconclusive: 8.2 µM [activator, partial curve]",–

SMILES,Potency,"activity change, positive = activation"
COc1ccc(CC(=O)Nc2ccc(-c3noc(-c4ccc(Cl)cc4)n3)cc2)cc1,"inconclusive: 14.6 µM [activator, partial curve]",–
COc1cccc(OCC(=O)NNC(=O)C(=O)Nc2cccc(C)c2)c1,"inconclusive: 23.1 µM [activator, single point]",–
Cn1c(=O)c2c(SCc3cccc(C(F)(F)F)c3)nc(-c3ccco3)nc2n(C)c1=O,"inconclusive: 29.1 µM [activator, single point]",–
O=S(=O)(c1ccc(F)cc1)N1CCCN(c2nccc(C(F)(F)F)n2)CC1,–,inactive: -2.96%
c1ccc2c(c1)CCN(c1nc3cc4c(cc3s1)OCO4)C2,active: 0.461 µM,–
Cc1ccc(N2CC(C(=O)OCc3nnc(-c4ccccc4)o3)CC2=O)cc1 (configuration not stated),"inconclusive: 25.9 µM [activator, partial curve, poor fit]",–
CCc1ccc(C2C(C#N)=C(N)N(N(C)C)C3=C2C(=O)CCC3)cc1 (configuration not stated),–,inactive: 5.42%
O=C(CC(Nc1ccc(Cl)cc1Cl)C(=O)O)c1ccccc1 (configuration not stated),active: 6.51 µM,–
O=C1c2cccnc2C(=O)N1Cc1ccc(S(=O)(=O)N2CCOc3ccccc32)cc1,–,inactive: -1.34%
O=C(CCCc1ccccc1)Nc1ccc2c(c1)OCCO2,active: 2.06 µM,–
C/C(=N/NC(=O)c1ccc(C)s1)c1cccnc1,"inconclusive: 25.9 µM [activator, partial curve, poor fit]",–
COc1ccc(-c2cc3ccc(OC)cc3cn2)cc1,"inconclusive: 0.326 µM [activator, full curve]",–
CC(C)(C)NS(=O)(=O)c1ccc(OCC(=O)NCC2CCCO2)cc1 (configuration not stated),–,inactive: 1.8%
O=[N+]([O-])c1cc2c(c(CSc3nnc(Nc4ccccc4)s3)c1)OCOC2,–,inactive: 1.61%
Cc1sc(NC(=O)c2ccco2)c(C(c2cccnc2)N2CCC(C)CC2)c1C (configuration not stated),–,inactive: -1.98%
COc1ccc2[nH]c3c(c2c1)CCN1C(=O)C(CC(=O)NCCCn2ccnc2)C[C@H](C(=O)N(C(C)C)C(C)C)[C@@]31C (some centres not stated),–,inactive: 5.68%
CC(=O)N1CCN(c2nc3ccc(Br)cc3s2)CC1,"inconclusive: 5.17 µM [activator, partial curve, poor fit]",–
Cc1[nH]c2ccccc2c1C(=O)COC(=O)c1c(-c2c(F)cccc2Cl)noc1C,–,inactive: -4.38%
N#Cc1ccc(OCC(=O)N2CCCC2=O)cc1,–,inactive: -0.319%
CCCCN(C(=S)Nc1cccc(SC)c1)C1CCN(C(C)=O)CC1,"inconclusive: 13 µM [activator, partial curve, poor fit]",–
O=C(NCCc1cccs1)c1ccc(Cl)cc1,"inconclusive: 1.3 µM [activator, full curve]",–
Cc1ccc(-n2ncc3c(=O)n(CC(=O)N4CCCCCC4)cnc32)cc1,–,inactive: 1.83%
Nc1ccc2c(c1Cl)C(=O)c1ccc(N)c(Cl)c1C2=O,"inconclusive: 7.3 µM [activator, partial curve, poor fit]",–
C=CCN(c1ccccc1)S(=O)(=O)c1cccc(C(=O)NCc2ccco2)c1,–,inactive: -3.1%
Nc1ccc2oc3ncccc3c(=O)c2c1,"inconclusive: 23.1 µM [activator, single point]",–
CC(C)N1C(=O)/C(=C\c2nc3ccccc3c(=O)n2-c2ccccc2)c2ccccc21,–,inactive: -14.2%

SMILES,Potency,"activity change, positive = activation"
Cc1ccsc1/C=N/NC(=O)c1ccc2c(c1)OCCO2,active: 1.64 µM,–
CCCCCCCCOc1ccc(C(=O)O)cc1,–,inactive: 8.68%
COc1ccc(-c2csc(N(CCc3ccc(OC)c(OC)c3)C(=O)COc3ccccc3)n2)cc1,–,inactive: -6.81%
CCCCCN(C(=O)CCC(=O)OCC(=O)N1C(C)CCCC1C)c1c(N)n(CCCC)c(=O)[nH]c1=O (configuration not stated),–,inactive: -1.46%
O=C(Nc1ccccc1Br)c1ccc(N2CCCC2=O)cc1,"inconclusive: 10.3 µM [activator, partial curve, poor fit]",–
CCCn1c(SC(C)C(=O)NC2CC2)nnc1-c1ccncc1 (configuration not stated),–,inactive: -0.403%
COCC1CCN(C(=O)CCc2nnc(C3(c4ccc(Cl)cc4)CCC3)o2)C1 (configuration not stated),"inconclusive: 18.3 µM [activator, partial curve, poor fit]",–
CCCOc1ccc(C(=O)NNC(=S)NC(=O)c2ccccc2)cc1,"inconclusive: 32.6 µM [activator, partial curve, poor fit]",–
CC1CCN(c2ccc(-c3cccc(NC(=O)C(F)(F)F)c3)nn2)CC1,active: 0.13 µM,–
COc1cc(NC(=O)CNC(=O)Cn2c(C)cc3ccccc3c2=O)cc(OC)c1OC,–,inactive: -9.31%
CCn1cnc2cc(NC(=O)c3cccs3)ccc21,"inconclusive: 6.51 µM [activator, partial curve]",–
c1ccc(NCc2nc(-c3ccccc3)no2)cc1,active: 23.1 µM,–
CNC(=O)COc1ccc(Cl)c2cccnc12,"inconclusive: 14.6 µM [activator, partial curve, poor fit]",–
COc1cc(/C=N/Nc2nc3ccccc3s2)ccc1OC(=O)c1ccccc1F,active: 6.51 µM,–
Cc1cccc(C2CC(c3ccccc3)Nc3ncnn32)c1 (configuration not stated),–,inactive: 0.0786%
COc1ccc(/C(O)=C2/C(=O)C(=O)N(CCN3CCOCC3)C2c2ccccn2)cc1 (configuration not stated),"inconclusive: 11.6 µM [activator, single point]",–
O=C(CCOc1ccccc1)Nc1ccccc1,–,inactive: 10.3%
COC(=O)N1CCc2c(sc(NC(=O)C3=COCCO3)c2C#N)C1,"inconclusive: 32.6 µM [activator, partial curve, poor fit]",–
Nc1ccc2oc(-c3ccccc3Cl)nc2c1,active: 3.66 µM,–
Cc1ccccc1-c1nc(CN2CCC(C(=O)NCCCN3CCCC(C)C3)CC2)c(C)o1 (configuration not stated),"inconclusive: 32.6 µM [activator, partial curve, poor fit]",–
O=C(Nc1ccc(F)cc1)Nc1ccc2c(c1)CCC2,"inconclusive: 8.2 µM [activator, partial curve]",–
O=C(NCc1ccccc1Cl)C1CCN(S(=O)(=O)c2ccc(-n3cnnn3)cc2)CC1,"inconclusive: 4.11 µM [activator, single point]",–
O=C(/C=C/NNC(=O)c1ccccc1)c1ccccc1,"inconclusive: 20.6 µM [activator, single point]",–
O=S(=O)(Nc1nc2ccccc2nc1N1CCc2ccccc2C1)c1ccc(Br)cc1,"inconclusive: 4.11 µM [activator, single point]",–
c1c2c(cc3sc(N4CCOCC4)nc13)OCCO2,active: 0.326 µM,–
